Here are results for four molecules from paper PMC11369174, “Proteome-scale characterisation of motif-based interactome rewiring by disease mutations” (Molecular Systems Biology, 2024).

Chains of the proteins cited; added tags and fusions are not shown. Residues count along the entry.
UniProt Q13283, residues 11-133: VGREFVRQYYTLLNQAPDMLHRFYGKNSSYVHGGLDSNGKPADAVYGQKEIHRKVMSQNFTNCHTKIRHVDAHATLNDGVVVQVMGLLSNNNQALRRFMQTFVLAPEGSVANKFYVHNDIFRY
UniProt O14936, residues 12-276: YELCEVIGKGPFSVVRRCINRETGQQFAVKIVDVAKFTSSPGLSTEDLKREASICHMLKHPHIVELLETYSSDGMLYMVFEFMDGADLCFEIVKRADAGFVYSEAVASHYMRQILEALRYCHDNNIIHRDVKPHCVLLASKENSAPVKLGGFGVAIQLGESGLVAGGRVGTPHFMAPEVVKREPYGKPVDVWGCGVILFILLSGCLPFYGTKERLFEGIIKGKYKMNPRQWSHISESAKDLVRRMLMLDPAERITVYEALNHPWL

Results are given in words; binding and its absence hold for the method and conditions named.

Experiment in all cases: fluorescence polarisation; displacement: unlabelled peptide titrated onto a complex of FITC-labelled peptide (10 nM) and protein domain (1-2x KD); 50 mM sodium phosphate buffer pH 7.4 (CASK: plus 100 mM NaCl); KD calculated from IC50; technical triplets; both purified
The target in experiment [1] is Ras-GTPase-activating protein-binding protein 1 (G3BP1) NTF2 domain (human) (UniProt Q13283).
The target of experiment [2] is peripheral plasma membrane protein CASK (CASK) kinase domain (human) (UniProt O14936).
Experiment [3] addresses T1, Ras-GTPase-activating protein-binding protein 2 (G3BP2) NTF2 domain (human) (UniProt Q9UN86).
T1 sequence: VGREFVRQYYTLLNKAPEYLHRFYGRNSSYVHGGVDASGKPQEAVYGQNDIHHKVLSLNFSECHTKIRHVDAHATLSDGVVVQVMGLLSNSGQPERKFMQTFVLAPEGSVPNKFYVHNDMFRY

B1: CTNNB1_(27-42) wild-type peptide (peptide)
peptide: QQSYLDSGIHSGATTT
For B1, the binding result in experiment [1] is “no binding”.

B2: MAPT 717-731 wild-type peptide (peptide)
peptide: YSGDTSPRHLSNVSST
On to B2, for which the binding result in experiment [2] is “no binding”.

B3: FANCA 1-16 wild-type peptide (peptide)
peptide: MSDSWVPNSASGQDPG
As to B3, the binding result in experiment [2] was “no binding”.

B4: BCL11A_(44-56) wild-type peptide (peptide)
peptide: DLLTCGQAQMNFPY
As to B4, the binding result in experiment [3] is given as “no binding”.
